Reference: PubChem BioAssay AID686978 (National Center for Advancing Translational Sciences (NCATS), 2013)
Several values for one entry are separate records, joined by “and”; a condition that tells them apart may be missing. Equal values may be shown once. The whole screen tested about 420,000 compounds, of which about 64,000 (15%) were called active. Inconclusive means that the source gave no clear call. Such entries were picked first, then a sample of the others. Calls come from the whole dose curve; as a rule, active = well fitted inhibition curve with a large enough effect; inconclusive = small, poorly fitted or top-dose-only effect; inactive = flat fitted curve, though single readings scatter. Potencies beside an inconclusive call are fits to weak or partial responses and may not hold up.

Assay: qHTS for Inhibitors of human tyrosyl-DNA phosphodiesterase 1 (TDP1): qHTS in cells in absence of CPT; note: nearly all actives have a fitted effect of over 55% in size
Conditions: DT40 Tdp1-/- hTDP1 cells, no CPT, ATP luminescence, 48 h; activity change, negative = growth inhibition: at 46.2 µM (top of the series) unless noted
Summary of the method: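 Cells were dispensed at 400 per well, compounds added by pin tool, plates incubated ≥48 hr at 37 °C, then CellTiter-Glo added for 30 min at room temperature before luminescence reading. Line: DT40 Tdp1-/- complemented with hTDP1; camptothecin omitted.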
% is set by controls: 0 for no effect and ±100 for the full control effect; potency is the fitted concentration of half-maximal effect; tags give direction and shape of the fitted curve.

**Q.** For `CCC(c1nnnn1CCOC)N(Cc1cc2c(C)cc(C)cc2[nH]c1=O)CC1CCCO1` (configuration not stated), which Potency is on record?
**A.** Its Potency is inconclusive: 23.1 µM [inhibitor, single point].

**Q.** With `Cc1ccn2c(Nc3ccc4c(c3)OCO4)c(-c3ccco3)nc2c1` as the compound, how does the Potency read?
**A.** Its Potency is inconclusive: 29.1 µM [inhibitor, single point].

**Q.** With `O=NN(Cc1cccnc1)C(=O)NC1CCCCC1` as the compound, how does the Potency read?
**A.** Its Potency is inconclusive: 20.6 µM [inhibitor, single point].

**Q.** Which “activity change, negative = growth inhibition” value does the source give for `CCN(CC)c1ccc(/C=N\NC(N)=O)cc1` here?
**A.** Its value is inactive: -21%.

**Q.** Which Potency does the source give for `Cc1ccccc1-c1ccc2ncnc(N(C)Cc3ccco3)c2c1` here?
**A.** Its Potency is inconclusive: 29.1 µM [inhibitor, single point].

**Q.** For `COc1ccc(C(=O)c2sc3nc(C)cc(-c4cccs4)c3c2N)cc1`, which Potency is on record?
**A.** The Potency was inconclusive: 25.9 µM [inhibitor, single point].

**Q.** Which Potency does the source give for `O=C(CCc1nc2ccccc2c(=O)[nH]1)Nc1cc(Cl)ccc1N1CCCCC1` here?
**A.** The Potency was inconclusive: 29.1 µM [inhibitor, single point].

**Q.** Which Potency does the source give for `CC(C)C(N)c1csc(Nc2ccc(C(=O)c3ccccc3)cc2)n1` (configuration not stated) here?
**A.** Its Potency is inconclusive: 29.1 µM [inhibitor, single point].

**Q.** With `CCCC(O)(c1ccccc1)C(CN1CCOCC1)c1ccccc1` (configuration not stated) as the compound, how does the Potency read?
**A.** Its Potency is inconclusive: 25.9 µM [inhibitor, single point].

**Q.** With `COc1cccc(Cn2c(SCc3ccc(C(=O)N4CCC(C)CC4)cc3)nc3ccncc32)c1` as the compound, how does the Potency read?
**A.** Its Potency is active: 20.6 µM.

**Q.** For `CCC(Cc1ccccc1)NC(=O)c1csc2c1CCCCC2` (configuration not stated), which Potency is on record?
**A.** Its Potency is inconclusive: 2.59 µM [inhibitor, full curve].

**Q.** With `Cc1cccc(C)c1OCC(O)CN1CCN(c2ccccc2)CC1` (configuration not stated) as the compound, how does the Potency read?
**A.** The Potency was inconclusive: 23.1 µM [inhibitor, single point].

**Q.** With `O=C(NNc1ccccc1[N+](=O)[O-])Nc1ccc(Cl)c(Cl)c1` as the compound, how does the Potency read?
**A.** Its Potency is inconclusive: 23.1 µM [inhibitor, single point].

**Q.** For `CC1(C)O[C@@H]2C[C@H]3[C@@H]4C[C@H](F)C5=CC(=O)CC[C@]5(C)[C@H]4[C@@H](O)C[C@]3(C)[C@]2(C(=O)CO)O1`, which Potency is on record?
**A.** The Potency was inconclusive: 9.03 µM [inhibitor, partial curve, poor fit] and inconclusive: 25.9 µM [inhibitor, single point].

**Q.** For `CSc1ccc(Cl)c(C(=O)Nc2cc(S(=O)(=O)N3CCOCC3)ccc2N2CCOCC2)c1`, which Potency is on record?
**A.** Its Potency is inconclusive: 16.4 µM [inhibitor, partial curve, poor fit].

**Q.** Which Potency does the source give for `COC(=O)c1sccc1N/N=C/c1cccc(Oc2ccccc2)c1` here?
**A.** Its Potency is inconclusive: 29.1 µM [inhibitor, single point].

**Q.** Which Potency does the source give for `Clc1cccc(Cl)c1C[n+]1ccc2ccccc2c1` here?
**A.** The Potency was active: 1.46 µM.
